According to the supplement of paper PMC4604168 (melanoma cell lines):
The list shows a part of the results. Repeats are few or missing, and single values can be far off.

The compounds below were run on COLO800 (assay: cell count relative to DMSO control; melanoma cells; higher = more viable cells). Details: library dose: low library concentration; 72 h.
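Also: cell number obtained by counting DAPI-stained nuclei in high-throughput microscope images with image analysis software, screen run in 1,536-well plates.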

Q: How did the cell count turn out when `CO[C@H]1C[C@@H]2CC[C@@H](C)[C@@](O)(O2)C(=O)C(=O)N2CCCC[C@H]2C(=O)O[C@H]([C@H](C)C[C@@H]2CC[C@@H](OCCO)[C@H](OC)C2)CC(=O)[C@H](C)/C=C(\C)[C@@H](O)[C@@H](OC)C(=O)[C@H](C)C[C@H](C)/C=C/C=C/C=C/1C` [everolimus] + CCN(CC)CCCCNc1ncc2cc(-c3cc(OC)cc(OC)c3)c(NC(=O)NC(C)(C)C)nc2n1 [PD173074] (first compound 0.02 µM, partner dose 0.1 µM) was run?
A: The cell count was 84.4%.

Q: Which cell count does the source give for `Nc1ccn([C@@H]2O[C@H](CO)[C@@H](O)C2(F)F)c(=O)n1` [gemcitabine] + O=C1NC(=O)/C(=C/c2ccc(-c3ccc(F)cc3O)o2)S1 [AS252424] (first compound 0.0004 µM, partner dose 1 µM) here?
A: Its cell count is 81.5%.

Q: `Nc1ccn([C@@H]2O[C@H](CO)[C@@H](O)C2(F)F)c(=O)n1` [gemcitabine] + Oc1nc(-c2ccc(C(F)(F)F)cc2)nc2c1CSCC2 [XAV939] (first compound 0.0004 µM, partner dose 2 µM) was tested. Which cell count did it give?
A: The cell count was 97.7%.

Q: `Nc1ccn([C@@H]2O[C@H](CO)[C@@H](O)C2(F)F)c(=O)n1` [gemcitabine] + O=S(=O)(c1ccccc1)N(CC(F)(F)F)c1ccc(C(O)(C(F)(F)F)C(F)(F)F)cc1 [T0901317] (first compound 0.0004 µM, partner dose 1.4 µM) was tested. Which cell count did it give?
A: The cell count was 101%.

Q: For `Nc1nc(F)nc2c1ncn2[C@@H]1O[C@H](CO)[C@@H](O)[C@@H]1O` [fludarabine] + CCc1ccc(CCOc2ccc(CC3SC(=O)NC3=O)cc2)nc1 [pioglitazone] (first compound 0.2 µM, partner dose 2 µM), which cell count is on record?
A: Its cell count is 102%.

Q: Which cell count does the source give for `CC(=O)c1c(C)c2cnc(Nc3ccc(N4CCNCC4)cn3)nc2n(C2CCCC2)c1=O` [palbociclib] + Cc1cc([N+](=O)[O-])ccc1NS(=O)(=O)c1cc(Cl)ccc1Cl [FH535] (first compound 0.04 µM, partner dose 1 µM) here?
A: The cell count was 75.9%.

Q: Which cell count does the source give for `CC(=O)O[C@@]12CO[C@@H]1C[C@H](O)[C@@]1(C)C(=O)[C@H](O)C3=C(C)[C@@H](OC(=O)[C@H](O)[C@@H](NC(=O)OC(C)(C)C)c4ccccc4)C[C@@](O)([C@@H](OC(=O)c4ccccc4)[C@H]21)C3(C)C` [Docetaxel] + N#Cc1c(O)c2c(-c3ccc(-c4ccccc4O)cc3)csc2[nH]c1=O [A769662] (first compound 0.0001 µM, partner dose 2 µM) here?
A: Its cell count is 25.6%.

Q: Which cell count does the source give for `Nc1ncn([C@H]2C[C@H](O)[C@@H](CO)O2)c(=O)n1` [decitabine] + COC(=O)c1sccc1S(=O)(=O)Nc1ccc(Nc2ccccc2)cc1OC [GSK0660] (first compound 0.1 µM, partner dose 1 µM) here?
A: Its cell count is 73.7%.

Q: How did the cell count turn out when `CO[C@H]1C[C@@H]2CC[C@@H](C)[C@@](O)(O2)C(=O)C(=O)N2CCCC[C@H]2C(=O)O[C@H]([C@H](C)C[C@@H]2CC[C@@H](OCCO)[C@H](OC)C2)CC(=O)[C@H](C)/C=C(\C)[C@@H](O)[C@@H](OC)C(=O)[C@H](C)C[C@H](C)/C=C/C=C/C=C/1C` [everolimus] + COc1ccc2c(c1)CCC1C2CCC2(C)C(NCCCCCCN3C(=O)C=CC3=O)CCC12 [U73122] (first compound 0.02 µM, partner dose 0.4 µM) was run?
A: Its cell count is 76.1%.

Q: With `CC(=O)O[C@@]12CO[C@@H]1C[C@H](O)[C@@]1(C)C(=O)[C@H](O)C3=C(C)[C@@H](OC(=O)[C@H](O)[C@@H](NC(=O)OC(C)(C)C)c4ccccc4)C[C@@](O)([C@@H](OC(=O)c4ccccc4)[C@H]21)C3(C)C` [Docetaxel] + O=S(=O)(c1ccccc1)N(CC(F)(F)F)c1ccc(C(O)(C(F)(F)F)C(F)(F)F)cc1 [T0901317] (first compound 0.0001 µM, partner dose 1.4 µM) as the compound, how does the cell count read?
A: Its cell count is 43.2%.

Q: For `Nc1nc(F)nc2c1ncn2[C@@H]1O[C@H](CO)[C@@H](O)[C@@H]1O` [fludarabine] + CCN(CC)CCCCNc1ncc2cc(-c3cc(OC)cc(OC)c3)c(NC(=O)NC(C)(C)C)nc2n1 [PD173074] (first compound 0.2 µM, partner dose 0.1 µM), which cell count is on record?
A: The cell count was 61.2%.

Q: With `CC(=O)c1c(C)c2cnc(Nc3ccc(N4CCNCC4)cn3)nc2n(C2CCCC2)c1=O` [palbociclib] + N#Cc1c(O)c2c(-c3ccc(-c4ccccc4O)cc3)csc2[nH]c1=O [A769662] (first compound 0.04 µM, partner dose 2 µM) as the compound, how does the cell count read?
A: Its cell count is 113%.

Q: `CC(=O)O[C@@]12CO[C@@H]1C[C@H](O)[C@@]1(C)C(=O)[C@H](O)C3=C(C)[C@@H](OC(=O)[C@H](O)[C@@H](NC(=O)OC(C)(C)C)c4ccccc4)C[C@@](O)([C@@H](OC(=O)c4ccccc4)[C@H]21)C3(C)C` [Docetaxel] + Oc1cc(-c2nc(-c3ccccc3)[nH]c2-c2ccncc2)ccc1Cl [L779450] (first compound 0.0001 µM, partner dose 0.2 µM) was tested. Which cell count did it give?
A: Its cell count is 44.4%.

Q: Which cell count does the source give for `CC(=O)c1c(C)c2cnc(Nc3ccc(N4CCNCC4)cn3)nc2n(C2CCCC2)c1=O` [palbociclib] + O=C(O)C(=O)Nc1sc2c(c1C(=O)O)CCNC2 [TCS401] (first compound 0.04 µM, partner dose 1.66667 µM) here?
A: Its cell count is 93.9%.

Q: How did the cell count turn out when `Nc1ncn([C@H]2C[C@H](O)[C@@H](CO)O2)c(=O)n1` [decitabine] + COc1cc(N2CCC(N3CCN(C)CC3)CC2)ccc1Nc1ncc(Cl)c(Nc2ccccc2S(=O)(=O)C(C)C)n1 [NVP-TAE684] (first compound 0.1 µM, partner dose 0.08 µM) was run?
A: The cell count was 99.7%.

Q: How did the cell count turn out when `CC(=O)c1c(C)c2cnc(Nc3ccc(N4CCNCC4)cn3)nc2n(C2CCCC2)c1=O` [palbociclib] + CCCCCCCCCCCC1=C(O)C(=O)C=C(O)C1=O [Embelin] (first compound 0.04 µM, partner dose 1.2 µM) was run?
A: The cell count was 133%.

Q: Which cell count does the source give for `CC(=O)O[C@@]12CO[C@@H]1C[C@H](O)[C@@]1(C)C(=O)[C@H](O)C3=C(C)[C@@H](OC(=O)[C@H](O)[C@@H](NC(=O)OC(C)(C)C)c4ccccc4)C[C@@](O)([C@@H](OC(=O)c4ccccc4)[C@H]21)C3(C)C` [Docetaxel] + O=C1NC(=O)/C(=C/c2ccc(-c3ccc(F)cc3O)o2)S1 [AS252424] (first compound 0.0001 µM, partner dose 1 µM) here?
A: The cell count was 40.4%.

Q: Which cell count does the source give for `CC(=O)O[C@@]12CO[C@@H]1C[C@H](O)[C@@]1(C)C(=O)[C@H](O)C3=C(C)[C@@H](OC(=O)[C@H](O)[C@@H](NC(=O)OC(C)(C)C)c4ccccc4)C[C@@](O)([C@@H](OC(=O)c4ccccc4)[C@H]21)C3(C)C` [Docetaxel] + O=c1cc(-c2cccc3c2Sc2ccccc2S3)oc(N2CCOCC2)c1 [KU55933] (first compound 0.0001 µM, partner dose 1 µM) here?
A: Its cell count is 36%.

Q: With `Nc1nc(F)nc2c1ncn2[C@@H]1O[C@H](CO)[C@@H](O)[C@@H]1O` [fludarabine] + O=C(Nc1ccccc1)c1cc([N+](=O)[O-])ccc1Cl [GW9662] (first compound 0.2 µM, partner dose 2 µM) as the compound, how does the cell count read?
A: Its cell count is 108%.

Q: How did the cell count turn out when `Nc1ncn([C@H]2C[C@H](O)[C@@H](CO)O2)c(=O)n1` [decitabine] + COc1ccc2c(c1)CCC1C2CCC2(C)C(NCCCCCCN3C(=O)C=CC3=O)CCC12 [U73122] (first compound 0.1 µM, partner dose 0.4 µM) was run?
A: The cell count was 95.8%.

Q: How did the cell count turn out when `Nc1ccn([C@@H]2O[C@H](CO)[C@@H](O)C2(F)F)c(=O)n1` [gemcitabine] + CCCCCCCCCCCC1=C(O)C(=O)C=C(O)C1=O [Embelin] (first compound 0.0004 µM, partner dose 1.2 µM) was run?
A: The cell count was 72.3%.

Q: With `Nc1ccn([C@@H]2O[C@H](CO)[C@@H](O)C2(F)F)c(=O)n1` [gemcitabine] + COC(=O)c1sccc1S(=O)(=O)Nc1ccc(Nc2ccccc2)cc1OC [GSK0660] (first compound 0.0004 µM, partner dose 1 µM) as the compound, how does the cell count read?
A: Its cell count is 80.6%.
